The values below come from PubChem BioAssay AID485344 (National Center for Advancing Translational Sciences (NCATS), 2010).

By inhibition is commonly meant the drop in the measured response relative to a control, in per cent.

The whole screen tested about 340,000 compounds, of which about 6,900 (2%) were called active. Rule as the data show it: active = inhibition above about 30%; inactive = below that, where a call was filed. Only a part is listed here, and it is no random draw. Entries without a call were filed so in the source.

UniProt P14416, sequence (P14416 whole entry, looked up): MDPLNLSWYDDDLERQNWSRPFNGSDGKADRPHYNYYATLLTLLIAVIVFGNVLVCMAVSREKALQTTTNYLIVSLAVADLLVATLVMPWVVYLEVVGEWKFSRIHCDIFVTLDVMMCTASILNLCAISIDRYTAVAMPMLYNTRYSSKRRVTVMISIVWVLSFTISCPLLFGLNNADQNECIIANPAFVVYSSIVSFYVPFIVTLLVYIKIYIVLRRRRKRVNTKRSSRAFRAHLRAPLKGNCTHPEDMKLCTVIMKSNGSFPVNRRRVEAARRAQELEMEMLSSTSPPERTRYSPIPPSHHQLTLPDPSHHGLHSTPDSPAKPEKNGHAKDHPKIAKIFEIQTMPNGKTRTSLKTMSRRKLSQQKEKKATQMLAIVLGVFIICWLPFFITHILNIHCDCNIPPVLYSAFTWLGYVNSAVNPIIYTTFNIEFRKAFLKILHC

The assay addresses D(2) dopamine receptor (Homo sapiens) (UniProt P14416). Put plainly: HTS Assay for Allosteric Antagonists of the Human D2 Dopamine Receptor: Primary Screen for Antagonists. Also: 0% is about no effect. The note with it: HEK293 TREx D2 cells, calcium flux, dopamine EC80; at 10 µM; stronger effect = higher value. Summed up:
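Read-out: kinetic calcium fluorescence (1 cycle/s) in inducible HEK293 T-REx D2 cells after an EC80 dopamine addition that followed 180 s compound preincubation. Loss of the dopamine response indicates antagonism.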
Regarding `CN(C)c1ccc(CN(Cc2ccco2)C(=O)c2ccc(C(C)(C)C)cc2)cc1`, the inhibition was found to be 0.76%.

Turning to `O=C(NCCc1ccc(Cl)cc1)c1cnc2sc(N3CCOCC3)nn2c1=O`, the inhibition is -0.334%.

`Cc1oc(-c2cccc(Cl)c2)nc1CSc1nncn2c1cc1occc12`: the inhibition was -8.5%.

Turning to `COc1ccc(CC(=O)Nc2ccc3nc(Nc4ccc(OC)cc4)cc(C)c3c2)cc1`, the inhibition is 5.06%.

As for `CCc1ccc(CNC(=O)c2cc(=O)[nH]c3ccc(S(=O)(=O)N4CCCCC4)cc23)cc1`, the inhibition was -3.29%.

Consider `Cc1c(Cl)ccc2sc(N3CCN(C(=O)C(C)C)CC3)nc12`, for which the inhibition was found to be 16.9%.

Consider `CCOC(=O)c1c(NC(=O)c2cc(C(C)C)on2)sc(C(C)=O)c1C`, for which the inhibition was -1.58%.

Regarding `CCOC(=O)c1c(C)oc2nc(C)nc(Nc3ccc(C)c(Cl)c3)c12`, the inhibition was -3.88%.

`Cc1ccc(Sc2c(C)nn(-c3ccccc3)c2OC(=O)C(C)(C)C)cc1`: the inhibition was found to be 13.2%.

As for `CCOc1ccc(NC(=O)CC2C(=O)N(c3ccc(F)cc3)C(=O)N2Cc2ccc(OC)c(OC)c2)cc1` (stereo unspecified), the inhibition amounted to 5.87%.

Take `COc1ccc(OC)c(NS(=O)(=O)c2cc3c(cc2Cl)N(C(C)=O)CCO3)c1`: the inhibition is 8.2%.

On to `COC(=O)c1c(NC(=O)C(C)Oc2ccc(Cl)c(C)c2)sc(C)c1C` (stereo unspecified), for which the inhibition was -4.71%.

Consider `Cc1ccc(-c2cc(C(=O)Nc3cc([N+](=O)[O-])ccc3C)no2)cc1F`, for which the inhibition was -12.2%.

With `Cc1ccccc1C(=O)NCCNc1ccc([N+](=O)[O-])cc1`, the inhibition is active: 32.8%.

On to `CCN1C(=O)c2ccccc2S(=O)c2ccc(C(=O)NCc3ccc(OC)cc3)cc21` (stereo unspecified), for which the inhibition is active: 81.4%.

In the case of `O=C(CSc1nc2cc(C(=O)NC3CCCC3)ccc2c(=O)n1CC1CCCO1)c1cccc(Cl)c1` (stereo unspecified), the inhibition is 8.38%.

For the molecule `Cc1ccc(C)c2sc(NC(=O)c3ccc(S(=O)(=O)N4CCC(C)CC4)cc3)nc12`, the inhibition is -25.9%.

With `COc1ccccc1NC(=O)CSc1nnc(N)s1`, the inhibition is -0.579%.

In the case of `COc1ccc(CCNc2oc(/C=C/c3cc(OC)c(OC)c(OC)c3)nc2C#N)cc1OC`, the inhibition turned out to be 1.71%.

`CCOC(=O)c1ccc(N2C(=O)c3n[nH]c(-c4cccs4)c3C2c2ccc(OCC)cc2)cc1` (stereo unspecified): the inhibition was 0.348%.

`COc1ccc(OC)c(CCNC(=O)CS(=O)(=O)Cc2nc(-c3cccc(Cl)c3)oc2C)c1`: the inhibition is -5.11%.

Take `CC12CN3CC(c4ccccc4)(CN(C1)C3c1ccc(O)cc1)C2=O` (stereo unspecified): the inhibition was 3.59%.

In the case of `CCOC(=O)c1c(NC(=O)C(C)Sc2cn(CCNC(=O)c3c(F)cccc3F)c3ccccc23)sc2c1CCC2` (stereo unspecified), the inhibition is -2.82%.

For the molecule `Cn1c(=O)oc2cc(S(=O)(=O)NC(Cc3ccccc3)C(=O)Nc3ccc(F)cc3)ccc21` (stereo unspecified), the inhibition was 24.8%.

In the case of `CCn1c(C(=O)NCc2ccc(F)cc2)cc2oc3ccccc3c21`, the inhibition amounted to 12.6%.

Turning to `COc1cccc(CNC(=O)c2cc(C)nc3c2c(C)nn3-c2ccc(C)cc2)c1`, the inhibition was -9.42%.

With `COc1cccc(-n2c(=O)c3c(C)c(C)sc3n(CC(=O)NCCc3ccc(OC)c(OC)c3)c2=O)c1`, the inhibition was -19.5%.

For `Cc1ccc(Cn2c(C(=O)O)c(CNCc3ccc(OC(C)C)cc3)c3ccc(C)cc32)cc1`, the inhibition was determined as 13.2%.

As to `COc1cc(OC)c(NC(=O)C2CCN(S(=O)(=O)c3c(C)noc3/C=C/c3c(C)cc(C)cc3C)CC2)cc1Cl`, the inhibition was -8.69%.

Turning to `COc1ccc(OC)c(NC(=O)CSc2ccc(-c3cccs3)nn2)c1`, the inhibition is -4.88%.

`CN(Cc1ccccc1)C(=O)c1cn(C)c2ccc(S(=O)(=O)N3CCCCC3)cc2c1=O`: the inhibition came out at 5.59%.

As for `COc1cccc(OCc2nc3ccccc3n2CCOc2ccc(C)cc2)c1`, the inhibition turned out to be 11.5%.

On to `CCCN(C(=O)c1cc2c(=O)oc3ccccc3c2s1)c1ccc(CC)cc1`, for which the inhibition was found to be 5.27%.

On to `CC(C)C(=O)Nc1ccc2nc(SCC(=O)N3CCCC3)sc2c1`, for which the inhibition is 7.89%.

Take `CCc1ccc(OCC(=O)NC(Cc2c[nH]c3ccccc23)C(=O)O)cc1` (stereo unspecified): the inhibition is -23.9%.

As for `Cc1c(Cl)cccc1NC(=O)N1CCN(C(=O)c2nsc3ccccc23)CC1`, the inhibition stood at 13.3%.

As for `Cc1ccccc1Nc1cc(C(=O)NCCCN2CCN(c3cccc(Cl)c3)CC2)c2ccccc2n1`, the inhibition was found to be 7.05%.

For `Cc1ccc(C(C)C)c(OCCSc2nc(-c3ccccc3F)nc3cc(=O)[nH]n23)c1`, the inhibition amounted to 4.65%.

Take `CCc1ccc(NC(=O)c2ccc(CN3CC(=O)N4CCCCC4C3=O)cc2)cc1` (stereo unspecified): the inhibition is -8.48%.

Take `Cc1c(CCC(=O)NCCc2ccccc2)c(=O)oc2c(C)c(O)ccc12`: the inhibition is 9.21%.

For the molecule `O=C(NCc1cccc(CNC(=O)C(=O)NCC2CCCO2)c1)C(=O)NCC1CCCO1` (stereo unspecified), the inhibition was active: 30%.

Take `O=C(CCNS(=O)(=O)c1ccc(OC(F)(F)F)cc1)NCCc1c[nH]c2ccccc12`: the inhibition was active: 39.7%.

For `Cc1ccc(CCNS(=O)(=O)c2cc(-c3cc(C)no3)ccc2C)cc1`, the inhibition is 0.171%.

Consider `O=C(NC1CC(=O)N(c2cccc(F)c2)C1)c1cccs1` (stereo unspecified), for which the inhibition was found to be 17%.

As to `CCOc1ccc(C(=O)NCc2ccc3c(c2)CCN3C(=O)c2ccc(Cl)cc2)cc1`, the inhibition is -3.19%.

As for `CC(C)N(C(=O)Cn1cc(SCC(=O)Nc2ccccc2F)c2ccccc21)C(C)C`, the inhibition was -11.3%.

Take `Cc1cccc(-n2ncc(C(=O)N3CCOCC3)c2C2CCN(C(=O)OC(C)(C)C)CC2)c1`: the inhibition was 1.85%.

With `COCCN(Cc1cccs1)S(=O)(=O)c1cc(-c2cc(C)no2)ccc1C`, the inhibition stood at 4.55%.

For the molecule `Cn1nnc2c(N3CCN(c4cccc(Cl)c4)CC3)ncnc21`, the inhibition came to 8.4%.

Regarding `COCCCNC(=O)c1c(NC(=O)Cc2coc3c(C)c(C)ccc23)sc2c1CCCC2`, the inhibition is -9.34%.

As for `Cc1cccc(C(=O)OCC(=O)NN2C(=O)NC3(CCC(C)CC3)C2=O)c1O` (stereo unspecified), the inhibition was active: 30.6%.

For `CCCCOC(=O)c1c(N)n(-c2ccc(OC)cc2OC)c2nc3ccccc3nc12`, the inhibition is -20.9%.

As for `CCC(Sc1nnc2c(n1)[nH]c1ccccc12)C(=O)Nc1nnc(C(C)C)s1` (stereo unspecified), the inhibition was -8.36%.

For `CCCCN(CC)CCCNC(=O)CS(=O)(=O)Cc1nc(-c2ccc(C)cc2)oc1C`, the inhibition is 13%.

As to `O=C(Nc1nnc(N2CCCCCC2)s1)Nc1cc(F)ccc1F`, the inhibition came out at 19.5%.

As for `CCCOc1ccc(C(=O)Nc2ccc3oc(-c4ccncc4)nc3c2)cc1`, the inhibition is -3.02%.

For the molecule `O=C(NCc1ccc(Cl)cc1)c1cnc2sc(N3CCOCC3)nn2c1=O`, the inhibition came out at 7.74%.

Turning to `Cc1c2cnn(CC(=O)NCc3ccc(F)cc3)c(=O)c2c(C)n1Cc1cccc(Cl)c1`, the inhibition is 2.63%.

For the molecule `CCOCCCN(Cc1ccco1)S(=O)(=O)c1cc2c(cc1Cl)NC(=O)CO2`, the inhibition turned out to be 0.0593%.

In the case of `COc1ccc(NC(c2nnc(-c3ccccc3)o2)c2ccccc2F)cc1Cl` (stereo unspecified), the inhibition is -13.2%.

In the case of `COc1cc(NC(=O)CSc2nnc(C)n3c2cc2oc(C)cc23)cc(OC)c1`, the inhibition came out at 6.65%.
